Kd data for one molecule are collected here from paper PMC12742838 (2025).

What is called Kd is the free concentration of one partner at which half of the binding sites on the other are occupied at equilibrium, for simple one-to-one binding.

The target in the test is T1, Varicella-zoster virus glycoprotein E (gE), recombinant protein, tag not told for these experiments (Varicella-zoster virus, UniProt P09259 31-537).
T1 chain: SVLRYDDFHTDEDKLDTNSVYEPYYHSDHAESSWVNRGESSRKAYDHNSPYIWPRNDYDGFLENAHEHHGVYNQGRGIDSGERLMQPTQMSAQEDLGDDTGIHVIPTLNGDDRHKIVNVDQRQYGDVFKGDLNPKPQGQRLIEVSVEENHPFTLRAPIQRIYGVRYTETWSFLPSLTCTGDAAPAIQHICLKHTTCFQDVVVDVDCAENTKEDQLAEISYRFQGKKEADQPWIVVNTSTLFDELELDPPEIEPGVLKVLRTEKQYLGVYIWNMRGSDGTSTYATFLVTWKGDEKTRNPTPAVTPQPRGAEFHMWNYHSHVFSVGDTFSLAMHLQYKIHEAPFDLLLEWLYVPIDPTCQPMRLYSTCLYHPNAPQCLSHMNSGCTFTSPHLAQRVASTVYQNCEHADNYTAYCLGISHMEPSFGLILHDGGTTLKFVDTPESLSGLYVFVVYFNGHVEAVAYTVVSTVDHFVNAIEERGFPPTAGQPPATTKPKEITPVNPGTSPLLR
Description: SPR. (In general: In SPR one partner is held on a chip, and binding of the other changes the refractive index at the surface.)

B1: recombinant soluble insulin-degrading enzyme (rIDE, residues 42-1,019) (enzyme)
chain: not shown
In the case of B1, the Kd is 50.9 nM.
